Assay results published in PubChem BioAssay (NCI).
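Tested at 5 concentrations; 48 h exposure; 96-well plates; endpoints linearly interpolated, else capped at highest concentration. GI50 is the concentration that inhibits growth by half. TGI denotes the concentration required for complete inhibition of growth.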

test system: NCI-H322M lung; experiment: NCI anticancer screen, dose series, 48 h

Compared with COc1ccc2nc(Nc3cccc(NC(=O)c4ccc(CN5CCN(C)CC5)c(C(F)(F)F)c4)c3)ccc2c1, COc1cnc2c(c1)C(=O)c1c-2n(CCCNCCO)c(=O)c2cc(F)ccc12 is 7.4-fold lower in GI50: 6.06 µM for the first, 0.821 µM for the second.

Going from CC[C@]12C=CCN3CC[C@@]4(c5ccc(OC)cc5N(C)[C@H]4[C@@](O)(C(=O)OC)[C@@H]1OC(=O)CCC[P+](C1CCCCC1)(C1CCCCC1)C1CCCCC1)[C@@H]32 to Cc1ccc(Cl)cc1NC(=O)N/C(N)=N/c1nc2ccccc2s1, the GI50 falls from 5.79 µM to 0.368 µM (16-fold).

Compared with COc1ccc2nc(Nc3cccc(NC(=O)c4ccc(CN5CCN(C)CC5)c(C(F)(F)F)c4)c3)ccc2c1, COc1cnc2c(c1)C(=O)c1c-2n(CCCNCCO)c(=O)c2cc(F)ccc12 is 3-fold lower in TGI: 11.4 µM for the first, 3.74 µM for the second.

CC[C@]12C=CCN3CC[C@@]4(c5ccc(OC)cc5N(C)[C@H]4[C@@](O)(C(=O)OC)[C@@H]1OC(=O)CCC[P+](C1CCCCC1)(C1CCCCC1)C1CCCCC1)[C@@H]32 and Cc1ccc(Cl)cc1NC(=O)N/C(N)=N/c1nc2ccccc2s1 are within 1.5-fold of each other in TGI: 18.6 µM for the first, 18.9 µM for the second.
